Target: T1, mouse CD47 (Mus musculus, UniProt Q61735)
T1 construct: Analogous experiments were conducted in EG7 cells expressing mouse CD47; endogenous in cells; host or cells: EG7 cells
T1 sequence (Q61735 19-303): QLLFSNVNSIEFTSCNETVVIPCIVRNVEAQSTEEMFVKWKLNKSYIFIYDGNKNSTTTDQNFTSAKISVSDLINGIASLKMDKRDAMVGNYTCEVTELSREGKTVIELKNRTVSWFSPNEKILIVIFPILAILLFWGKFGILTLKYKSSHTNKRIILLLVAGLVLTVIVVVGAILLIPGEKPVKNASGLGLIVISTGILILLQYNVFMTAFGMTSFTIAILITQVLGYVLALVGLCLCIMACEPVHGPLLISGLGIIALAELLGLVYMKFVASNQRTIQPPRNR
Test: Cell-based ligand-binding assay in EG7 cells expressing mouse CD47
Details: FIG. 11B
Experimental: About 200,000 Raji cells were stained with indicated concentration of SIRPα-FC protein in cell staining buffer (Biolegend CAT #420201) for 20 min at RT. After washing cell staining buffer, the cells were incubated with PE labeled anti-human-IgG-FC for 20 min at RT, and then the cells were washed and analyzed by flow cytometry.

B1: fusion protein 1054: SEQ ID NO: 7; a high affinity SIRPα construct, bivalent (protein)
chain: EEELQIIQPDKSVLVAAGETATLRCTITSLFPVGPIQWFRGAGPGRVLIYNQRQGPFPRVTTVSDTTKRNNMDFSIRIGNITPADAGTYYCIKFRKGSPDDVEFKSGAGTELSVRAKGG[human IgG1 Fc not printed]
cross-reactivity with mouse CD47: cross-reacts with mouse

Source: US20260103501A1, “MRNA Therapies Including SIRP-ALPHA” (NUTCRACKER THERAPEUTICS, INC., priority 2022, published 2026)
